From PubChem BioAssay AID493208 (National Center for Advancing Translational Sciences (NCATS), 2011)
The campaign covered roughly 44,000 compounds. About 340 (0.77%) were called active. About 5% were inconclusive and are not listed. Calls follow the shape of the dose curve; as a rule, active = well fitted inhibition curve with a large enough effect; inconclusive = small, poorly fitted or top-dose-only effect; inactive = flat fitted curve, though single readings scatter. Some of the results follow.

Experiment: Acumen qHTS Assay for Inhibitors of the mTORC1 Signaling Pathway in MEF (Tsc2-/-, p53-/-) Cells: Sytravon;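 also: plate controls were DMSO for no effect and rapamycin for full effect; nearly all actives have a fitted effect of over 50% in size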
Conditions: phospho-rpS6 immunofluorescence/PI, 24 h; series mostly up to 38.3 µM; activity change, negative = inhibition: at the top concentration
How it was run: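 Read-out: phospho-S6 Alexa-488 intensity over PI intensity per well, scored as % active cells using thresholds from rapamycin (7.5 nM) and DMSO controls. Tsc2-/-, p53-/- MEFs exposed to compound for 24 h; PI cell count recorded as viability.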

Activity change, negative = inhibition, inactive:
Cc1ccc(C)c(OCCOCCn2c(-c3ccc(Br)cc3)nc3ccccc3c2=O)c1C -26.1%, Cc1cccc(Cn2c(CNS(=O)(=O)c3ccc(Cl)s3)nc3cccnc32)c1 -5.67%, Cc1ccc2[nH]c(CSc3nnc(NC(=O)COc4ccccc4F)s3)cc(=O)c2c1 0%, CCOc1ccc(-c2cc3c(=O)n(CC(=O)Nc4c(C)cccc4C)ccn3n2)cc1 0%, Fc1ccc(-c2csc(-c3nc(-c4ccc(Br)s4)cs3)n2)cc1 2.49%, Cc1ccc(Cl)cc1NC(=O)/C(C#N)=C/c1c(C)n(Cc2ccccc2)c2ccccc12 12.4%, CC1CCCCN1C(=O)CSc1nnc(-c2cccc(Cl)c2)o1 (configuration not stated) 1.74%, CC(=O)N1CCCc2cc(S(=O)(=O)N(C)CC(=O)Nc3ccc(F)c(Cl)c3)ccc21 -16.6%, CCOc1ccc(NC(=O)CCCN2C(=O)C(c3ccccc3)Oc3cccnc32)cc1 (configuration not stated) -0.0942%, Cc1ccc(NC(=O)c2ccc3nc(Cc4ccccc4)oc3c2)cc1F 5.1%, CCN(CC)c1ccc2cc(-c3nnc(-c4cccc(Cl)c4)o3)c(=O)oc2c1 2.87%, Cc1csc2nc(-c3cccc(NC(=O)c4cccc(F)c4)c3)cn12 -8.07%, Cc1ccc(NC(=O)c2ncn(-c3ccccc3)n2)c(Cl)c1 4.48%, Cc1cccc(-c2noc(CN(C(=O)c3ccc(C)c(C)c3)C(C)C)n2)c1 -1.34%, COc1ccc(C)cc1N(C)C(=O)c1sc2nc3n(c(=O)c2c1C)CCCCC3 3.34%, CCOc1ccc(CCNC(=O)C2=C(C)C(=O)OC23CCC(C)CC3)cc1OCC (configuration not stated) 2.2%, CCCCCn1c(=O)[nH]c2cc(C(=O)NCc3ccc(C)cc3)ccc2c1=O 8.63%, COc1cccc(NC(=O)CSc2nc(-c3ccccc3)nc3c2Cc2cc(Cl)ccc2O3)c1 3.38%, Cc1ccc(C(=O)c2oc3ccccc3c2NC(=O)c2nc(S(C)(=O)=O)ncc2Cl)cc1F 0.607%, CCOC(=O)c1cccc(NC(=O)CC(c2ccc(F)cc2)N2Cc3ccccc3C2=O)c1 (configuration not stated) -4.83%, O=S(=O)(c1ccccc1)c1nc(-c2ccc(F)cc2)oc1N1CCOCC1 -0.237%, CCOc1cc(C#N)c(NC(=O)c2ccc(OC)c(S(=O)(=O)N3CCCC3)c2)cc1OCC -3.31%, CCCOc1ccc(OC(=O)c2sc3ncn(Cc4cccc(F)c4)c(=O)c3c2C)cc1 -0.738%, COc1ccccc1NC(=O)N(Cc1ccco1)C1CCN(C(C)=O)CC1 0.065%, Cc1nc2cc(-c3cccc(F)c3)nn2c(C)c1CCC(=O)N1CCN(c2ccc(F)cc2)CC1 2.45%, O=C(Cn1nnc2sc3c(c2c1=O)CCCC3)Nc1ccc(F)c(Cl)c1 11.5%, COc1cccc(NC(CNS(=O)(=O)c2ccc(C)cc2)c2ccccc2)c1 (configuration not stated) -2.82%, CCN1C(=O)c2ccccc2Sc2ccc(NC(=O)c3ccc(C)c(F)c3)cc21 -3.54%, Cc1ccccc1CNC(=O)CCCn1nc(C)c2sc3ccccc3c2c1=O -11.1%, CCc1c(C)nc2nncn2c1Nc1ccc(C)c(F)c1 -10.8%, Cc1cc(-c2ccc(C)c(S(=O)(=O)NCc3ccc(Cl)cc3)c2)on1 -2.03%, CCCS(=O)(=O)NCCc1csc2nc(-c3ccc(OC)cc3)nn12 0.199%, COc1ccccc1N(CC(=O)NCCSCc1ccc(Cl)cc1)S(C)(=O)=O -2.42%, CN(Cc1ccccc1)c1ncnc2c1nc1n2CCCC1 -0.265%, CCCCOc1cccc(C(=O)Nc2cccc3ccc(C)nc23)c1 -1.59%, COc1cc(OC)cc(C(=O)Nc2ccc3nc(N4CCC(C)CC4)cc(C)c3c2)c1 -2.35%, Cc1ccc(CS(=O)(=O)Cc2ccc(C(=O)NCCc3ccc(Cl)cc3)o2)cc1 2.57%, Cc1cc(C)c2c(=O)cc(C(=O)Nc3ccccc3Cl)oc2c1 0.711%, Cc1ccc2c(CC(=O)Nc3cc(C(F)(F)F)ccc3Cl)coc2c1C 4.34%, CCC12CN3CC(CC)(CN(C1)C3c1ccc(OCc3ccccc3)cc1)C2=O (configuration not stated) 4.66%, Cc1ccc2oc(=O)n(CCNC(=O)Nc3ccccc3Cl)c2c1 -8.25%, COc1ccc(C2CC(=O)Nc3c2c(=O)nc2c(C)cccn32)cc1 (configuration not stated) 0.707%, CCOC(=O)c1c(C)[nH]c(C)c1S(=O)(=O)N1CCC(C(=O)Nc2ccccn2)CC1 0.634%, O=c1oc2ccc(Br)cc2cc1-c1nc(-c2ccccc2)no1 0%, CCC(C)NC(=O)C1CCC(CNS(=O)(=O)c2cccc3nsnc23)CC1 (configuration not stated) 0.682%, CCS(=O)(=O)N1CC(=O)N(c2ccc(C)c(C)c2)C(C)(C(=O)NC2CCCCC2)C1 (configuration not stated) 0.165%, CCc1ccc(-c2nc3c(c(SCc4ccc(F)cc4)n2)Cc2c(CO)cnc(C)c2O3)cc1 -0.283%, COc1ccc(N2CCN(C(c3ccccc3)c3nnc(-c4ccccc4Cl)o3)CC2)cc1 (configuration not stated) -8.83%, Cc1cccc(NC(=O)CSc2nc3c(oc4ccccc43)c(=O)n2C(C)C)c1 -9.45%, COc1cccc(CNC(=O)Cn2ncc3c4ccccc4n(C)c3c2=O)c1 2.64%, COCCNC(=O)CCCn1c(SCC(=O)Nc2cccc(C)c2)nc2c(sc3ccccc32)c1=O -11.6%, CC1=C(C(=O)NCCc2ccc(Cl)cc2)C2(CCCCC2)OC1=O -19.7%, COc1ccc(C(=O)c2oc3ccccc3c2NC(=O)COc2c(C)cc(C)cc2C)cc1 -4.83%, COc1cccc(CNC(=O)c2c(O)nc3ccccn3c2=O)c1 0.266%, CCOc1ccc(N2CC(c3nc4ccccc4n3CC(C)C)CC2=O)cc1 (configuration not stated) -16.9%, COc1cc(-c2noc(-c3ccc(NCCc4ccccc4)c([N+](=O)[O-])c3)n2)cc(OC)c1OC -6.99%, COc1cc(NC(=O)CCNS(=O)(=O)c2ccc3c(c2)CCN3C(=O)C2CC2)cc(OC)c1 3.49%, COCC(=O)N1CCc2cc(OC)c(OC)cc2C1COc1ccc2c(C)cc(=O)oc2c1 (configuration not stated) 2.51%, Cc1ccc(C)c(N2CCN(C(=O)c3ccc4c(Cl)c5c(nc4c3)CCCC5)CC2)c1 -9.61%, CCc1ccccc1N1CC(c2nc3ccccc3n2Cc2cccc(C)c2)CC1=O (configuration not stated) 0.235%, O=C(Nc1sc2c(c1C(=O)NCc1ccccc1)CCCC2)c1cc(=O)c2cc(Cl)ccc2o1 -6.61%, N#Cc1ccccc1Cn1nnc2c(=O)[nH]c(C3CCCN(S(=O)(=O)c4ccc(F)cc4)C3)nc21 (configuration not stated) -13.1%, O=C(Nc1nc2nc(-c3ccccc3)cc(=O)n2[nH]1)c1ccc(F)cc1 5.65%, CCOc1ccc(S(=O)(=O)NCCc2sc(-c3ccc(C)cc3)nc2C)cc1 -11%, CCOc1ccccc1N1CC(c2nc3ccccc3n2CCCOc2ccccc2OC)CC1=O (configuration not stated) -12.8%, COc1cccc(CNC(=O)Cn2ccc3cc(S(=O)(=O)N4CCCC4)ccc32)c1 -16.2%, O=C(NCc1ccccc1)C1CCC(CNS(=O)(=O)c2ccc(Br)s2)CC1 (configuration not stated) 0.389%, CC1CCc2nn(CC(=O)Nc3cccc(C(F)(F)F)c3)c(=O)cc2C1 (configuration not stated) 3.56%, COc1cc(NC(=O)Cn2c(=O)n(C(C)C)c(=O)c3oc4ccccc4c32)cc(OC)c1 1.64%, O=C(Nc1cccnc1Cl)c1cc(-c2ccc(Cl)cc2)on1 -2.32%, CCc1ccc(NC(=O)Cn2nnc(C(=O)NCc3ccco3)c2N)cc1 -0.938%, Cc1ccccc1C(=O)Nc1nnc(SCc2cc(=O)c3c(C)ccc(C)c3[nH]2)s1 0%, CC1CCN(S(=O)(=O)c2cc(C(=O)NCc3ccc(F)cc3)n(C)c2)CC1 -0.355%, COc1cccc(COC(=O)c2ccc(-c3nnn(Cc4ccccc4)n3)cc2)c1 -3.63%, O=C1C(c2ccc(F)cc2)N(CCc2ccccc2)C(=O)CN1C1CCCCC1 (configuration not stated) -5.84%, CC(C)c1ccc(C(=O)Nc2cccc3cccnc23)cc1 -12.2%, COc1ccc(CN(C(=O)Nc2ccc(C)c(F)c2)C2CCN(C(C)=O)CC2)cc1 -0.656%, CCOc1ccc(CCNS(=O)(=O)c2c(C)nc3sc(C)cn3c2=O)cc1OCC 2.99%, CC(=O)c1ccc(NC(=O)CCc2c(C)nn(-c3ccc4nncn4n3)c2C)cc1 -23.1%, CSc1ccc(CCNC(=O)c2cc3n(n2)CCCN(Cc2ccc(C)cc2)C3=O)cc1 5.53%, CCC1CN(C(=O)N2CCC(C(=O)NCCOC)CC2)c2ccccc2O1 (configuration not stated) -10.5%, CCc1ccc(NC(=O)C2CCCN(S(=O)(=O)c3c(C)[nH]c(=O)[nH]c3=O)C2)cc1 (configuration not stated) -15.8%, COC(=O)c1ccc(Cn2nc(-c3ccc(C)c(C)c3)ccc2=O)cc1 2.22%, COc1ccc(Cl)cc1Nc1ncnc2c1nc1n2CCCC1 -15.3%, O=C(CCS(=O)(=O)c1cc2c3c(c1)CCN3C(=O)CC2)NCc1ccc(F)cc1 9.37%, COCCc1nn2c(=O)cc(COC(=O)COc3ccccc3C)nc2s1 4.33%, CC(C)c1ccc(NC(=O)C2CCCN(S(=O)(=O)c3cccc4nonc34)C2)cc1 (configuration not stated) 0.118%, O=c1c2ccccc2n2c(-c3ccc(F)c(F)c3)nnc2n1CCc1ccccc1 1.58%, Cc1cc(C)c(NC(=O)CSc2nnc3[nH]c(=O)cc(C)n23)c(C)c1 -0.868%, CCC(=O)Nc1ccc2nc(SCC(=O)N3CCc4ccccc43)sc2c1 -9.49%, CCOC(=O)c1ccccc1NC1(c2ccc(OC)cc2)C(=O)c2ccccc2C1=O -3.19%, CCOC(=O)c1c(S(=O)(=O)N2CCCC(C(=O)Nc3ccc(C)cc3C)C2)c(C)n(CC)c1C (configuration not stated) -1.04%, COC(=O)c1ccc(C2c3c(oc4cc(C)c(C)cc4c3=O)C(=O)N2c2ccccn2)cc1 (configuration not stated) -16.2%, CCOc1ccc(S(=O)(=O)Nc2ccc3c(c2)c(C(C)=O)c(C)n3S(=O)(=O)c2ccc(OCC)cc2)cc1 16%, CC(=O)Nc1ccc(C(=O)CSc2nnc3cc(C)c4ccccc4n23)cc1 -1.26%, Cc1ccc(NC(=O)c2sc3nc(-c4ccc(F)cc4)cn3c2C)c(C)c1 5.49%, COc1ccc(CCC(=O)NC2CC(=O)N(c3ccc(C)c(C)c3)C2)cc1 (configuration not stated) 2.98%
